In US9499493B2, “2,4-pyrimidinediamine compounds and their uses” (Rigel Pharmaceuticals, Inc., priority 2002, dated 2016):
Structures can show the parent of a compound that is named as a salt.

Legend:
Jurkat cells = assay: Jurkat toxicity, Cell Titer Glo assay; type: cell-based; settings: 18 hours incubation
B-cell line BJAB = assay: BJAB toxicity, Cell Titer Glo assay; type: cell-based; settings: 18 hours incubation
[1] = system: IgE-induced degranulation of tissue mast cells; assay: Mouse model of passive cutaneous anaphylaxis (PCA); type: in vivo; settings: PEG-based formulation (data not shown)
[2] = Sheep model of allergic asthma (Ascaris suum challenge); type: in vivo; settings: aqueous suspension
[3] = system: cultured human mast cells (CHMC); assay: CHMC low cell density IgE activation: tryptase assay; type: cell-based; settings: anti-IgE
[4] = system: cultured human mast cells (CHMC); assay: CHMC low cell density ionomycin activation: tryptase assay; type: cell-based
[5] = system: bone marrow derived mast cells (BMMC); assay: BMMC high cell density IgE activation: hexosaminidase; type: cell-based, mouse; settings: anti-IgE, second part of TABLE 1, read-out: BMMC anti-IgE hexos. IC50
[6] = system: bone marrow derived mast cells (BMMC); assay: BMMC high cell density IgE activation: histamine; type: cell-based, mouse; settings: anti-IgE, second part of TABLE 1
[7] = system: bone marrow derived mast cells (BMMC); assay: BMMC high cell density IgE activation: LTC4; type: cell-based, mouse; settings: anti-IgE, second part of TABLE 1
[8] = system: bone marrow derived mast cells (BMMC); assay: BMMC high cell density IgE activation: TNFalpha; type: cell-based, mouse; settings: anti-IgE, second part of TABLE 1, read-out: BMMC anti-IgE TNF-alpha IC50
[9] = system: bone marrow derived mast cells (BMMC); assay: BMMC high cell density IgE activation: IL-6; type: cell-based, mouse; settings: anti-IgE, second part of TABLE 1
[10] = 45 mg/sheep, pretreatment 60 min

| Compound | IC50 (Jurkat cells) [nM] | IC50 (B-cell line BJAB) [nM] | PCA response after oral administration (in words) [1] | LAR and AHR (in words) ([2]; 45 mg/sheep, 60 minutes prior to allergen challenge) | AHR (% inhibition) [2, 10] [%] | EAR (% inhibition) [2, 10] [%] | LAR (% inhibition) [2, 10] [%] | EAR (in words) [2] | IC50 [3] [nM] | IC50 [4] [nM] | IC50 [5] [nM] | IC50 [6] [nM] | IC50 [7] [nM] | IC50 [8] [nM] | IC50 [9] [nM] |
| --- | --- | --- | --- | --- | --- | --- | --- | --- | --- | --- | --- | --- | --- | --- | --- |
| CNC(=O)COc1cccc(Nc2ncc(C(F)(F)F)c(Nc3cccc(O)c3)n2)c1 [R926742, N4-(3-Hydroxyphenyl)-5-trifluoromethyl-N2-[3-(N-methylamino)carbonylmethyleneoxyphenyl]-2,4-pyrimidinediamine] | 9000 | > 10000 | able to inhibit the PCA response | blocked | 94 | −19 | 87 | failed to inhibit | – | – | – | – | – | – | – |
| CNC(=O)COc1cccc(Nc2ncc(F)c(Nc3ccc4cc[nH]c4c3)n2)c1 [R926745, 5-Fluoro-N4-[(1H)-indol-6-yl]-N2-[3-(N-methylamino)carbonylmethyleneoxyphenyl]-2,4-pyrimidinediamine] | > 10000 | > 10000 | – | – | – | – | – | – | 83 | > 10000 | – | – | – | – | – |
| O=C(COc1cccc(Nc2ncc(F)c(Nc3ccc4c(c3)OCCO4)n2)c1)NCC(O)CO (stereo not drawn) [R926782, N2-[3-(N-2,3-Dihydroxypropylamino)carbonylmethyleneoxyphenyl]-N4-(3,4-ethylenedioxyphenyl)-5-fluoro-2,4-pyrimidinediamine] | > 4330 | > 4330 | – | – | – | – | – | – | 173 | > 10000 | < 220 | < 220 | 1460 | 276 | < 220 |
| Cc1cc(Nc2nc(Nc3cccc(OCCN4CCNCC4)c3)ncc2F)cc(Cl)c1O [R945150, N4-(3-Chloro-4-hydroxy-5-methylphenyl)-5-fluoro-N2-[3-[2-(N-piperazino)ethoxy]phenyl]-2,4-pyrimidinediamine Dihydrochloride Salt] | > 4330 | > 4330 | – | – | – | – | – | – | 467 | > 10000 | > 2000 | > 2000 | > 10000 | 709 | 634 |
